Measurements reported in PubChem BioAssay AID485297 (National Center for Advancing Translational Sciences (NCATS), 2010).
Among all 320,000 compounds or so, about 9,100 (2.8%) were called active. The inconclusive results got no clear call from the source; some entries with a clear call stand among them for comparison. Calls follow the shape of the dose curve; as a rule, active = well fitted activation curve with a large enough effect; inconclusive = small, poorly fitted or top-dose-only effect; inactive = no such curve, though single readings can be large or run the other way. Potencies of inconclusive entries are left out as doubtful fits.

assay: qHTS Assay for Rab9 Promoter Activators; settings: Huh7 Rab9 promoter-luciferase reporter, luminescence, 24 h; series mostly up to 9.22 µM; activation, negative = inhibition: at the top concentration; also: nearly all actives have a fitted effect of over 60% in size; as to activation, negative = inhibition: % of control where 0% means no effect
Outline: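 Huh7 cells stably carrying Rab9 promoter–luciferase reporter, plated 1500 cells/well, compound added after 2 h and incubated 24 h at 37 °C; luciferase luminescence then read after 10 min with detection reagent.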
Potency is read from the fitted curve at half-maximal effect; tags tell the direction and shape of the fitted curve.

SMILES | activation, negative = inhibition | Potency
COc1cccc(NC(=O)c2ccc[n+](C)c2)c1 | inactive: -6.24% | –
O=C(Nc1nnc(SCC(=O)N2CCOCC2)s1)c1ccccc1Cl | – | inconclusive [activator, single point]
C=CCn1c(C)nc2c(sc3nc4c(cc32)COC(C)(C)C4)c1=O | – | active: 2 µM
Clc1ccc(-n2nnc(-c3cccnc3Cl)n2)cn1 | – | inconclusive [activator, partial curve]
COc1cc(/C=N/Nc2nc3ccccc3[nH]2)ccc1O | inactive: 2.62% | –
COc1ccc2oc(C(=O)NCC3CCCO3)c(C)c2c1 (centres undefined) | – | active: 3.98 µM
Cc1ccc(C(C(=O)NCC2CCCO2)N(C(=O)c2snc(C(N)=O)c2N)c2ccc(C)c(C)c2)o1 (centres undefined) | inactive: 4.81% | –
Cc1ccc(NC(=O)c2cc(-c3ccccc3)nn2-c2ccccc2)cc1 | inactive: 1.96% | –
CC(Cc1cccs1)NC(=O)Nc1ccc(Cl)cc1 (centres undefined) | – | inconclusive [activator, partial curve]
O=S(=O)(c1ccc(Cl)cc1)N1CCN(CCc2ccccc2)CC1 | inactive: -1.93% | –
COc1ccc(C(=S)NC2CCCCC2)cc1 | – | inconclusive [activator, single point]
Cc1ccc(C(=O)c2sc3nsc(C)c3c2N)cc1 | – | active: 2.82 µM
O=C1c2ccccc2NC(c2ccc(-c3cccc(Cl)c3)o2)N1O (centres undefined) | – | inconclusive [activator, single point]
CCC(=O)Nc1ccc(C(=O)Nc2cccc(C)n2)cc1 | – | active: 2.51 µM
O=C1c2ccccc2COc2ccc(O)cc21 | – | inconclusive [activator, single point]
COc1ccc(NC(=O)c2csc(Cc3ccccc3)n2)cc1 | – | inconclusive [activator, single point]
COc1ccc(CNC(=O)Nc2cccc(C)c2)cc1 | – | active: 3.98 µM
COc1ccc(C(=O)Nc2ccc(S(=O)(=O)N3CCCCC3)cc2)cc1OC | inactive: -4.94% | –
COc1cc(OC)c(OC)cc1CNC(=O)c1cc(=O)[nH]c2ccccc12 | inactive: -4.06% | –
O=C(Nc1cnc2sc3c(n2c1=O)CCCC3)c1ccc(F)cc1 | – | inconclusive [activator, partial curve]
CN(C)c1ccccc1C(=O)c1ccccc1N(C)C | inactive: -10.5% | –
O=C(N/N=C1\CCCc2ccccc21)c1ccccc1Cl | – | inconclusive [activator, single point]
CCCOc1cccc(C(=O)Nc2nnn(CCC)n2)c1 | – | inconclusive [activator, partial curve]
Cn1cc(/C=N/Nc2ccccc2)c2ccccc21 | – | inconclusive [activator, single point]
CCOc1ccc(C(=O)Nc2cccc3nsnc23)cc1[N+](=O)[O-] | inactive: -6.55% | –
Cc1ccc(NC(=O)CCc2c(C)nn(-c3ccc(N4CCOCC4)nn3)c2C)cc1F | – | inconclusive [activator, partial curve]
Cc1ccc2cc3cc(C(=O)NC4CCCCC4)oc3nc2c1 | – | inconclusive [activator, partial curve]

SMILES | activation, negative = inhibition | Potency
O=C(Nc1cccc([N+](=O)[O-])c1)c1ccn[nH]1 | – | inconclusive [activator, partial curve]
CCOC(=O)c1csc(NC(=O)c2cc3ccccc3o2)n1 | – | inconclusive [activator, full curve, poor fit]
O=C(COc1ccc2ccccc2c1)NC1CC1 | – | inconclusive [activator, single point]
COc1ccccc1C(=O)NNC(=O)C(=O)NC(C)(C)C | inactive: 12.2% | –
CC(C)c1ccc(NC(=O)CCc2ccccc2)cc1 | – | inconclusive [activator, partial curve]
O=C1CCC/C1=C/Nc1ccc2c(c1)OCO2 | – | inconclusive [activator, single point]
CN(C)S(=O)(=O)c1ccc(NC(=O)c2cc3ccccc3o2)cc1 | – | inconclusive [activator, single point]
O=C(N/N=C/c1ccccn1)C(=O)N1CCCCCC1 | – | inconclusive [activator, single point]
CCC(=O)N1CCc2nc(-c3ccccc3)sc2C1 | – | inconclusive [activator, partial curve]
CO/N=C/C(C#N)=C/c1ccc(OC)cc1 | – | inconclusive [activator, single point]
COC(=O)c1ccc(COc2ccc(/C=N/N3CCN(C)CC3)cc2)cc1 | – | active: 1.12 µM
COC(=O)c1c(-c2ccc(F)cc2)csc1NC(=O)c1ccco1 | – | active: 2.24 µM
Cc1ccc(NC(=O)/C(CN(C)C)=N\O)cc1 | – | inconclusive [activator, partial curve]
CCOC(=O)c1ccc(NC(=O)c2nn(C)cc2Br)cc1 | – | inconclusive [activator, partial curve]
O=C1c2ccccc2C2=Nc3ccccc3SC(c3cccc(F)c3)C12 (centres undefined) | inactive: -3.89% | –
CC(=O)CSc1nc2cc3c(cc2cc1C#N)OCCO3 | – | inconclusive [activator, partial curve, poor fit]
Cc1ccc(N2CSC3=C(C#N)C(c4cccs4)CC(=O)N3C2)cc1 (centres undefined) | – | inconclusive [activator, partial curve]
Cc1c(C(=O)OCC(C)(C)CN(C)C)oc2ccccc12 | inactive: -1.17% | –
Cc1ccc(N2C(=O)[C@@H]3C(C(=O)C(c4ccccc4)c4ccccc4)=NN[C@@H]3C2=O)cc1 | inactive: 1.73% | –
N#Cc1ccccc1NC(=O)c1ccc2c(c1)OCO2 | – | inconclusive [activator, partial curve]
COc1cc(/C=N/NC(=O)c2cccs2)ccc1O | – | inconclusive [activator, single point]
C/C(=C\C(=O)c1ccc(Cl)cc1)NCc1ccc2c(c1)OCO2 | inactive: -3.21% | –
Cc1ccc(S(=O)(=O)/N=C(/Nc2ccccn2)c2ccc(Cl)cc2)cc1 | – | inconclusive [activator, single point]
Cc1cccc(NC(=S)NNC(=O)c2csc3c2CCC(C)C3)c1 (centres undefined) | – | inconclusive [activator, single point]
O=C(COc1ccccc1)Nc1nnc(-c2ccc(Cl)s2)o1 | inactive: -6.35% | –
Cc1cccc(N=C2NN=C(c3ccc4c(c3)OCCO4)CS2)c1 | – | active: 2.82 µM
CC1Cc2cc(/C=C3/SC(=S)N(C)C3=O)ccc2O1 (centres undefined) | – | inconclusive [activator, single point]

SMILES | activation, negative = inhibition | Potency
CN1CCN(C(=O)C2=C[C@@H](c3ccc4c(c3)OCO4)C[C@@H](OCc3ccc(CO)cc3)O2)CC1 | inactive: -2.62% | –
N#Cc1c(Cl)cccc1N1CCC(C(N)=O)CC1 | inactive: 0.0701% | –
O=C1/C(=C\c2ccccc2)CCc2c1[nH]c1ccccc21 | – | inconclusive [activator, partial curve]
CC(=O)c1cccc(NC(=O)NCc2ccccn2)c1 | – | inconclusive [activator, single point]
COC(=O)Cc1ccc(NC(=S)NC(C)(C)C)cc1 | inactive: 12.8% | –
Clc1ccc(OCCCN2CCCCC2)c(Br)c1 | – | inconclusive [activator, single point]
Cc1nn(C)cc1/C=N\NC(=O)c1csc2c1CCCC2 | inactive: 14.5% | –
CCN(CC)c1ccc2cc(-c3nnc(-c4ccccc4)o3)c(=O)oc2c1 | – | inconclusive [activator, full curve]
O=C(CSc1n[nH]c(-c2ccccn2)n1)Nc1ccc(Cl)cc1 | inactive: -36.8% | –
COc1ccc(S(=O)(=O)N2CCCOC2CNC(=O)C(=O)NCCCN2CCOCC2)cc1C (centres undefined) | inactive: 2.31% | –
O=C(Nc1ccccc1F)NC1CCCCCCC1 | – | active: 3.98 µM
NC(=O)c1ccc(NC(=O)c2cc(S(=O)(=O)N3CCCCC3)ccc2N2CCOCC2)cc1 | – | inconclusive [activator, single point]
O=C(c1cnsn1)N1CCC(CO)(Cc2cccc(F)c2)CC1 | – | active: 3.16 µM
CCOC(=O)C(CC(=O)c1ccccc1)CC(=O)c1ccccc1 | inactive: 23% | –
COc1cccc(C(=O)Nc2ccc3[nH]ncc3c2)c1OC | – | inconclusive [activator, single point]
O=C(O)c1ccc(/C=N/NC(=S)NC2CCCCC2)cc1 | – | inconclusive [activator, single point]
O=C(NCc1ccc(F)cc1)c1c2c(nc3ccccc13)CCC2 | – | inconclusive [activator, partial curve]
COc1ccc(OC)c(Cc2nnc(CCC(=O)NC3CCCCCCC3)o2)c1 | – | inconclusive [activator, single point]
CC1(C)Cc2nc3sc(C(=O)NCCO)c(N)c3cc2CO1 | inactive: 15.3% | –
Cc1cccc(-n2ncc3c(NCc4ccccn4)ncnc32)c1 | – | inconclusive [activator, partial curve]
Clc1ccccc1CSc1ncn(-c2ccccc2)n1 | – | inconclusive [activator, single point]
O=C(Nc1cccnc1Cl)c1cc(-c2ccco2)on1 | – | inconclusive [activator, single point]
Cc1cnc(NC(=O)c2sc3ccccc3c2Cl)s1 | – | inconclusive [activator, full curve]
COc1ccc2nc(NC(=O)Nc3cccc4ccccc34)sc2c1 | – | inconclusive [activator, partial curve]
CCOc1ccc(CN2CCN(Cc3cccc4nonc34)CC2CCO)cc1 (centres undefined) | – | inconclusive [activator, partial curve, poor fit]
